Laboratory results as given in PMC4336329 (PLoS ONE, 2015).
About 14,000 (4.5%) of roughly 310,000 compounds showed an effect of 50% or more. Effects have a minus sign here. The list shows a part of the results.

molecular target: human ether-à-go-go-related gene (hERG) potassium channel (human, UniProt Q12809); assay: primary screen, population patch clamp on CHO cells stably expressing hERG
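Further: peak tail current of the secondary pulse compared with the same well before compound.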

Chain of human ether-à-go-go-related gene (hERG) potassium channel (Q12809 whole entry, looked up): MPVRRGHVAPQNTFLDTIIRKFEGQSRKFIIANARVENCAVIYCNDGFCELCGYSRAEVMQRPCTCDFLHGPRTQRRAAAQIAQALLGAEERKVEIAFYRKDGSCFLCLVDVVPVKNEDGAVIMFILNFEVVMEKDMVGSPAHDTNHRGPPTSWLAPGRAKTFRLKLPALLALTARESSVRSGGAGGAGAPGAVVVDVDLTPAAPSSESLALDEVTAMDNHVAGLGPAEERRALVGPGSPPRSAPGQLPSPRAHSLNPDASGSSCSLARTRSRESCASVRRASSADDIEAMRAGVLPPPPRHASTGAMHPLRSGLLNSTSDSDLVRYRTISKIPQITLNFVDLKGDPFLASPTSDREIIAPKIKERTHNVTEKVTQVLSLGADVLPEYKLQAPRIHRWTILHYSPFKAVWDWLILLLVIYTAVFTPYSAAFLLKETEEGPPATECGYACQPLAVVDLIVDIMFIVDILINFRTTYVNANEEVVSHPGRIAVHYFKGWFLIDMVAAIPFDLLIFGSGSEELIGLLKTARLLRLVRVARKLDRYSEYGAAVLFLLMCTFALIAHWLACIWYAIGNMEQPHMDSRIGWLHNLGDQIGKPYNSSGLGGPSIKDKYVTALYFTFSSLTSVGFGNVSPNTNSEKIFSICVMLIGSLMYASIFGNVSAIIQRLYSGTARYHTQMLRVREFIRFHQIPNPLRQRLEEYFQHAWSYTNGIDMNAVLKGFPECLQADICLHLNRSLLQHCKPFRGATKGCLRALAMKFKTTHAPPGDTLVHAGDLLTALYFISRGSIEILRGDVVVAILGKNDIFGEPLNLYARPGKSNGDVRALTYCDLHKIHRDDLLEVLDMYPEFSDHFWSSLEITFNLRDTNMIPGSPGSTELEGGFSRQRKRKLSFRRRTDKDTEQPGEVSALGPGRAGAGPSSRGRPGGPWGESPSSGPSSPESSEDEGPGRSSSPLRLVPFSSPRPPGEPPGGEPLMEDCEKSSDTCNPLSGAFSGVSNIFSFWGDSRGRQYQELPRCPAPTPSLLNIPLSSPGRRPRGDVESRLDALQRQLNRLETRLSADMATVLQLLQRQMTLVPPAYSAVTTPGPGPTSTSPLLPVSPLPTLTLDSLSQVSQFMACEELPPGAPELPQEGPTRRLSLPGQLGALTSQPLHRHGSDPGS

In order of falling “hERG current change (%, negative = inhibition) at 10uM” value:
1. CCOC(=O)N/N=C/c1cc(OC)c(O)c(OC)c1  54.3%
2. Cc1c(C(=O)NNc2cc(=O)n(C)c(=O)n2C)cccc1[N+](=O)[O-]  23.6%
3. CSC1=NCCN1C(=O)c1ccco1  21.4%
4. CCN(C(=O)CCNC(=O)Cn1cnc2ccccc2c1=O)c1ccccc1F  20.1%
5. CN(C)c1ccc(NC(=O)C[n+]2ccccc2)cc1.[Cl-]  18.5%
6. C=C1CCN(c2ccc(C(=O)NCc3ccc(C)cc3)cc2[N+](=O)[O-])CC1  18.1%
7. CC(=O)N/C(=N/c1nc(C)cc(C)n1)Nc1ccc(F)cc1F  17%
8. CN1C(=O)C2(C(C#N)=C(N)Oc3n[nH]c(-c4ccc(Cl)cc4)c32)c2ccccc21 (stereo not shown)  16.2%
9. COCCCN(C(=S)NC(=O)C12CC3CC(CC(C3)C1)C2)c1c(N)n(Cc2ccccc2)c(=O)[nH]c1=O  15.3%
10. Cc1sc(NC(=O)C2CCCC2)c(C#N)c1C  15.1%
11. CN1/C(=C\C(=O)c2cccs2)Sc2ccccc21  14.8%
12. COCCCNC(=O)C1CCC(=O)N1Cc1ccccc1Cl (stereo not shown)  14.6%
13. CCOc1ccccc1NC(=O)c1nnn(CC(=O)Nc2ccc3c(c2)OCO3)c1N  14.2%
14. Fc1ccc(F)c(C2=NNC(=NCC3CCCO3)SC2)c1 (stereo not shown)  14%
15. COc1c(C)cc(C(=O)C2CCCN(C(=O)Cn3nc(C)nc3C)C2)cc1C (stereo not shown)  12.6%
16. Cc1cccc(NC(=O)Cn2cnc3c(oc4ccccc43)c2=O)c1  12.5%
17. COc1ccc(CNC(=O)Cc2cccs2)cc1OC  12.4%
18. COc1ccccc1/C=C1\SC(=O)N(CC(=O)N(C)C2CCS(=O)(=O)C2)C1=O (stereo not shown)  11.5%
19. COc1ccccc1NS(=O)(=O)c1ccc(-c2cnc(C3CC3)o2)cc1  10.7%
20. CCN(c1ccccc1)S(=O)(=O)c1ccc(Cl)c(NC(=O)CN2CCCCCC2)c1.O=C(O)C(=O)O  10.1%
21. CCN(CC)c1ccc(C(=O)OCC(=O)Nc2cc(C)on2)cc1  9.35%
22. CCCc1c(O)nc(SC2CC(=O)N(c3cc(OC)ccc3OC)C2=O)[nH]c1=O (stereo not shown)  8.79%
23. Cc1cc(C(F)F)n2ncc(C(=O)N3CCCCC3)c2n1  8.66%
24. O=C(Nc1cccnc1)c1ccccc1F  8.5%
25. CCOc1ccc(/C=c2\sc3nc(-c4ccco4)nn3c2=O)cc1OCC  8.31%
26. COc1ccc(S(=O)(=O)NCC2CCCN(C(=O)c3ccccc3)C2)cc1 (stereo not shown)  8.3%
27. Cc1noc(C)c1COc1ccc(C(=O)Nc2ccccn2)cc1  8.06%
28. CC(Oc1ccc2c(-c3ccccc3)cc(=O)oc2c1)C(=O)NCC1CCC(C(=O)O)CC1 (stereo not shown)  7.57%
29. COc1ccc(C(=O)COC(=O)c2sc(C)nc2C)cc1OC  7.09%
30. CCOC(=O)C1CCCN(C(=O)c2ccc(CNc3c(N4CCC(C)CC4)c(=O)c3=O)cc2)C1 (stereo not shown)  5.83%
31. O=C1NCC(O)=C1C=Nc1ccccc1O  4.22%
32. CCCCNC1=NCCS1  3.28%
33. CN(C)/C=N/C(=S)Nc1ccc(Cl)cc1Cl  2.48%
34. CCOC(=O)c1c(NC(=O)CSC2=NN3CCCC(=O)N=C3S2)sc2c1CCCCC2  2.29%
35. Cc1ccc(S(=O)(=O)NCC(c2ccccc2)N2CCCCC2)cc1 (stereo not shown)  1.79%
36. CC(/C=N/n1c(-c2ccco2)n[nH]c1=S)=C\c1ccco1  1.57%
37. CC(C)c1ccc2[nH]c(O)c(N=NC(=O)c3cccc(S(=O)(=O)N4CCCCC4)c3)c2c1  0.517%
38. CC1CCCC(=C\c2ccccc2)/C1=N/O (stereo not shown)  -0.41%
39. COc1ccccc1/C=C/C(=O)Nc1ccc2c(c1)OCCO2  -0.461%
40. O=C(Nc1ccc(OC(F)(F)F)cc1)c1[nH]ncc1[N+](=O)[O-]  -0.846%
41. COc1cccc(CNC(=O)CCC2CCCN(C(=O)CCc3c(C)noc3C)C2)c1 (stereo not shown)  -2.56%
42. C=CCNC(=O)c1c(Cl)nc(C)c([N+](=O)[O-])c1C  -2.88%
43. CCn1c(CS(=O)Cc2ccc(Cl)cc2Cl)nnc1SCc1c(Cl)cccc1Cl (stereo not shown)  -6.78%
44. CC1=NN(c2ccccc2)C(=O)/C1=C/c1ccc[nH]1  -7.74%
45. CCOc1ccc(Nc2ccnc3cc(Cl)ccc23)cc1  -7.97%
46. Cc1c(C(=O)N(Cc2ccccc2)C(C)C)cnn1-c1ccccc1  -8.4%
47. CCOC(=O)c1cc2sccc2n1CC(=O)Nc1ccc(OC)c(OC)c1  -8.91%
48. O=c1c2c3c(sc2n2cnnc2n1-c1ccccc1)N(Cc1ccccc1)CCC3  -10.3%
49. Cn1cc(C(=O)NCc2ccc(F)cc2)c(=O)c2cc(S(=O)(=O)N3CCCCC3)ccc21  -11.9%
50. Cc1cccnc1NC(=O)c1ccc2c(c1)NC(=O)C(C)S2 (stereo not shown)  -13.2%
51. Cc1ccccc1CN1CCC(n2nccc2NC(=O)c2cccnc2)CC1  -14.6%
52. CC1c2[nH]c3ccccc3c2CCN1C(=O)Nc1ccccc1 (stereo not shown)  -14.7%
53. CC(=O)Oc1ccc(N2C(=O)C3C(C2=O)C2(C)C=CC3(C)O2)cc1 (stereo not shown)  -18.5%
54. CCOC(=O)C1=NNC(C(=O)c2ccc(Cl)cc2)C1c1ccccc1 (stereo not shown)  -23.9%
55. COc1ccc(NC(=S)NC(=O)c2ccccc2Cl)cc1  -24.4%
56. COc1ccccc1S(=O)(=O)Cc1ccc(C(=O)NCc2ccco2)o1  -33.5%
57. COc1ccc(N2CCN(C(c3ccc4ncccc4c3)c3nnnn3C(C)(C)C)CC2)cc1 (stereo not shown)  -52.1%
58. COc1cc(CNC23CC4CC(CC(C4)C2)C3)ccc1OCc1ccccc1.Cl  -64%
